# Results: article PMC4336329 (PLoS ONE, 2015)
# Hit rate of the full screen: of about 310,000 compounds, about 14,000 (4.5%) showed an effect of 50% or more. Effects have a minus sign here. Some of the results follow.
# Molecular target: human ether-à-go-go-related gene (hERG) potassium channel (human, UniProt Q12809)
# Experiment: primary screen, population patch clamp on CHO cells stably expressing hERG
# 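Further: peak tail current of the secondary pulse compared with the same well before compound.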
# Chain of human ether-à-go-go-related gene (hERG) potassium channel (Q12809 whole entry, looked up): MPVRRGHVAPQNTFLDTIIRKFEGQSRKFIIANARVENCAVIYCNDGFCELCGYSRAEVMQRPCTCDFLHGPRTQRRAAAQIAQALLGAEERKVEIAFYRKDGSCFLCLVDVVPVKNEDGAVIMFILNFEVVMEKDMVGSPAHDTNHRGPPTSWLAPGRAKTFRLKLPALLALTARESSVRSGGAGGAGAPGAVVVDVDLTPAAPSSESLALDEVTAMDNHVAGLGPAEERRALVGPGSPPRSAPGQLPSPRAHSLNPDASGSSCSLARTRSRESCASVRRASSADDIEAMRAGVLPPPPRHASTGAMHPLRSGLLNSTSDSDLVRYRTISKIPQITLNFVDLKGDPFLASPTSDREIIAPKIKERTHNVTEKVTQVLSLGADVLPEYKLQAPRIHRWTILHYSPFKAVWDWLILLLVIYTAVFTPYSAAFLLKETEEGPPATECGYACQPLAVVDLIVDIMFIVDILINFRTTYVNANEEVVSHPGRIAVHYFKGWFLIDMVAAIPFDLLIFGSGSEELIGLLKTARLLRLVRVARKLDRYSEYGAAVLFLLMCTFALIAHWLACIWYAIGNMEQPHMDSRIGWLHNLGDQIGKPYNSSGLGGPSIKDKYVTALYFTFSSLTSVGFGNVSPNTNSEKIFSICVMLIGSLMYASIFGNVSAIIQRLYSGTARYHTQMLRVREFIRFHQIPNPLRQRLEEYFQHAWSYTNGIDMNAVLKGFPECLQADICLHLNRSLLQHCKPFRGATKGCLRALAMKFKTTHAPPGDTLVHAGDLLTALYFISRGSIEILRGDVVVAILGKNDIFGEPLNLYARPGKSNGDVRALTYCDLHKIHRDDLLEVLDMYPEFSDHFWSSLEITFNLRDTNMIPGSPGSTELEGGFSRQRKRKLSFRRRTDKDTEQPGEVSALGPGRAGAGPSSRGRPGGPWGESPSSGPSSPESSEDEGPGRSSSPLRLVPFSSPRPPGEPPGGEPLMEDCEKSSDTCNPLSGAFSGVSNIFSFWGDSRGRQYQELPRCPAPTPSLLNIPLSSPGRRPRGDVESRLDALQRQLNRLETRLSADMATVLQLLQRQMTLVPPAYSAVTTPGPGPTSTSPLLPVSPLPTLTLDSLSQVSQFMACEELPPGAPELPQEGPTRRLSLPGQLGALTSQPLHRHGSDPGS
row,SMILES,"hERG current change (%, negative = inhibition) at 10uM [%]"
1,O=S(=O)(Nc1ccc(N2CCOCC2)cc1)c1cc(Cl)ccc1Cl,4.1
2,Cc1ccc(C(=O)CNc2nc3c(c(=O)[nH]c(=O)n3C)n2Cc2ccccc2)cc1,6.01
3,CCOC(=O)c1ccccc1NS(=O)(=O)c1ccccc1,-16.4
4,CC(CNC(=O)c1ccc(OC2CCN(Cc3ccccn3)CC2)cc1)c1ccccc1 (stereo not drawn),-76.5
5,COc1cc(NC(=O)C2=C(C)OCCS2)c(Cl)cc1C(=O)NCCN1CCN(C)CC1,-47.1
6,COc1ccc(C(=O)N2c3ccccc3C=CC2C#N)cc1 (stereo not drawn),-4.12
7,COc1cc(Cl)c(S(=O)(=O)NCCN2CCOCC2)cc1Cl,5.66
8,COc1cc(/C=C(\C#N)c2nc(-c3cc4ccccc4oc3=O)cs2)ccc1O,7.93
9,CN1C2CCC1C(COC(=O)c1ccccc1)C(O)C2 (stereo not drawn),15.7
10,COc1ccc([N+](=O)[O-])cc1NS(=O)(=O)c1cc(C(=O)N2CCN(C)CC2)ccc1OC,-10.4
11,CC(=O)NCC1CCCN(c2nc3nonc3nc2N(C)Cc2ccccc2)C1 (stereo not drawn),-36
12,O=C(NCc1ccccn1)c1ccc(Cn2c(=S)[nH]c3ccc(Br)cc3c2=O)cc1,32.3
13,CC(C)(C)c1ccc(S(=O)(=O)N2C=CC(C(F)(F)F)=NCC2)cc1,6.13
14,CCN1CCN(CC(=O)Nc2c(OC)cccc2OC)CC1.O=C(O)C(=O)O,14.3
15,CN1CCN(CC(=O)N2c3ccccc3C(C)(c3ccccc3)CC2(C)C)CC1 (stereo not drawn),-23.2
16,CCOC(=O)c1cnc2nc(N3CCOCC3)nn2c1N,3.01
17,COc1ccc(-c2csc(NC(=O)C3CSC4(C)CCC(=O)N34)n2)cc1OC (stereo not drawn),10.4
18,CCn1cc(C(=O)O)c(=O)c2cnc(N3CCN(C(=S)NC(=O)c4ccc(OC)cc4)CC3)nc21,1.34
19,CCOc1ccccc1C(=O)Oc1ccc2ccc(=O)oc2c1,11.7
20,CCOC(=O)C1=C(C)Nc2sc(C(=O)c3ccc(Br)cc3)c(N)c2C1c1ccc(C(=O)OC)cc1 (stereo not drawn),16.7
21,CCCN(CCO)Cc1cccc(Cl)c1,3.29
22,CCCn1c2c(c(O)c(C(=O)NCCCN(CC)CC)c1=O)CCCC2.Cl,-55
23,Cn1nc(CC(=O)NC2CCCCC2)c2ccccc2c1=O,-1.44
24,CC1=C(O)C(=O)OC1c1c(Cl)cccc1Cl (stereo not drawn),7.86
